In the RNAGym collection of RNA variant scans (doi:10.1093/nar/gkz1192) one finds self-cleavage data, which are given here for 84 variants.

The chains are these.
B1: CPEB3 Ribozyme (parent)
chain: UAACAGGGGGCCACAGCAGAAGCGUUCACGUCGCAGCCCCUGUCAGAUUCUGGUGAAUCUGCGAAUUCUGCUGUAUAUCUC

The source gives no read counts; variants with many changes may rest on few reads.

In this data set the parent is B1. Kind of data set: self-cleavage, relative activity (ratio to wild type); higher = more cleavage; in vitro, sequencing. Put shortly:
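Relative activity was defined as the cleaved/total read fraction for a variant divided by the same fraction for the unmutated ribozyme. CPEB3 self-cleaving ribozyme libraries were made by rounds of error-prone PCR, barcoded, and transcribed in vitro with T7 RNA polymerase for 5 hours at 37°C, and cleavage ran through transcription plus a 15 min DNase I step before EDTA. Illumina sequencing of template-switched reverse transcripts gave the reads, and DNA sequencing mapped the barcodes. Averages come from three batches, using variants with at least 5 reads.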
As for G6A A13U A18G U49C, the self-cleavage is 0.06.

On to A5U U51A U76C, for which the self-cleavage was determined as 0.84.

Regarding A5U U26C G30A U58C A64U U66C, the self-cleavage came to 0.1.

As to A5U C44A A64G A75U, the self-cleavage turned out to be 0.52.

Take A5U U26G U49C G55C U69G U76C U80G: the self-cleavage turned out to be 0.04.

With G6A C34G A35G U66C U72C, the self-cleavage is 0.18.

For the variant A5U C62U A64G U66C A77U, the self-cleavage worked out at 0.12.

On to G6A A13U U26A G63C A64U, for which the self-cleavage came out at 0.17.

G6A C12U A15G U51C U60A A64U: the self-cleavage worked out at 0.04.

In the case of A5U A56U U60C, the self-cleavage was found to be 0.26.

Regarding A5U U25G C34U U51A U54A U78G, the self-cleavage was found to be 0.06.

For the variant A5U U25C C62U U72A, the self-cleavage was found to be 0.35.

In the case of A5U A21G A35G U43A U58C U69A, the self-cleavage was determined as 0.25.

Consider A5U A20U A75G, for which the self-cleavage was 0.16.

Consider G6A A15G A18C A21G U49C, for which the self-cleavage was 0.09.

Turning to G6A G53C U60A G61U, the self-cleavage was 0.11.

Consider A5U G63U U67A U76C, for which the self-cleavage was 0.97.

With A5U U31A U41C G53U A57U A65U U74A, the self-cleavage stood at 0.09.

Take A5U U41A U78C: the self-cleavage stood at 0.3.

With G6A G46A A47U U54C, the self-cleavage worked out at 0.23.

With A5U G7C C17U U31A U69C, the self-cleavage was 0.06.

On to A5U U43C U60G, for which the self-cleavage turned out to be 0.18.

Turning to A5U A56U A57G, the self-cleavage was found to be 0.49.

G6A G9A A56G U74C A75G: the self-cleavage is 0.07.

With A5U A21G U69A U76C, the self-cleavage is 0.27.

Take A5U G8A U43C U72C: the self-cleavage worked out at 0.56.

A5U A28U U51C U69A: the self-cleavage was determined as 0.85.

Turning to A5U U25A U41C, the self-cleavage turned out to be 0.37.

As to G6A A18G A20G A45G A56G A57G U80A, the self-cleavage is 0.26.

For A5U A45G A56G C62U U76A, the self-cleavage was found to be 0.43.

Regarding A5U U25C U43C U58C A77U U80A, the self-cleavage was determined as 0.1.

Turning to A5U U26A A45U U72A, the self-cleavage was 0.49.

Take G6U A15G U25C: the self-cleavage is 0.07.

On to A5U C27U C40U U74C, for which the self-cleavage amounted to 0.19.

Regarding G6A A13U U49C U51C A65G, the self-cleavage worked out at 0.07.

Regarding A5U A56G U78C, the self-cleavage worked out at 0.52.

Turning to A5U A35G A45G U51A, the self-cleavage is 1.37.

On to G6A G30C A47G U67A U76C C79A, for which the self-cleavage was found to be 0.04.

Take A5U A21U U41C G53A A64G U72C: the self-cleavage is 0.14.

On to A5U U31C A35G A45G A65G, for which the self-cleavage was determined as 0.32.

On to G6A U69C U72C, for which the self-cleavage was found to be 0.14.

With A5U U43A U49C G52A A65G, the self-cleavage is 0.45.

For A5U G9A A47G U54C, the self-cleavage stood at 0.26.

In the case of A5U A21C A45U U51C G53C, the self-cleavage came to 0.24.

As to A5U U26A A45G, the self-cleavage turned out to be 0.86.

For A5U G9U C32U U43A, the self-cleavage was found to be 0.07.

As to G6A A57G U69C, the self-cleavage stood at 0.07.

On to G6A U26C C40A U72C U74A, for which the self-cleavage came to 0.34.

Turning to A5U A45C U48C, the self-cleavage amounted to 0.08.

Consider G6A A35U C38U U43C U60A, for which the self-cleavage was 0.06.

Turning to G6A A15G A45C U78C, the self-cleavage was determined as 0.23.

As to G6A A15U A28U A45C U51A C71U, the self-cleavage was determined as 0.03.

Take A5U G52C A64G: the self-cleavage turned out to be 1.04.

With G6A G10A A45U U48A U72A, the self-cleavage stood at 0.07.

A5U A21G U67A: the self-cleavage turned out to be 0.19.

Consider A5U G53A A57G, for which the self-cleavage is 0.99.

In the case of G6A A15U U43C U76A A77U, the self-cleavage is 0.04.

Regarding A5U A21U C38A U41C A57G, the self-cleavage was 0.28.

As to G6A G9A G10C G46A A47U U54A U69C, the self-cleavage is 0.16.

As for A5U A35U A65G, the self-cleavage amounted to 0.25.

G6C A18G U66C U67C U69C U74C U80C: the self-cleavage turned out to be 0.

With A5U U31C U49A U54A, the self-cleavage was 0.54.

Regarding A5U A57G U69C G70U U78C, the self-cleavage is 0.26.

Turning to G6A G30C U66C A75G, the self-cleavage was 0.09.

As for G6C U67C U80C, the self-cleavage worked out at 0.26.

As to A5U C12U C17U A35U G52A U58C, the self-cleavage was 0.41.

As to G6A U66C A77G, the self-cleavage was 0.2.

On to G6A A21G G30A, for which the self-cleavage came to 0.05.

G6C C14G A28G U31A G73A U78C: the self-cleavage stood at 0.44.

Turning to G6A U25C U26A U48C U69C, the self-cleavage was 0.07.

Take A5U U67A U72C: the self-cleavage came out at 0.13.

In the case of G6A U41C U43G U69A U72A, the self-cleavage was 0.04.

Consider G6A U31A A56G, for which the self-cleavage came out at 0.12.

As to A5U G6A C29U U60C, the self-cleavage was 0.09.

With A5U U49C U60C A64G, the self-cleavage amounted to 0.18.

On to G6A A13U G46A U51C U60C, for which the self-cleavage was 0.05.

For the variant A5U U49C G53A, the self-cleavage stood at 0.33.

For the variant G6A A15G A21U U43C U80C, the self-cleavage was 0.27.

On to G6A A57G U60G, for which the self-cleavage is 0.07.

As to G6A U43C A47G U58C, the self-cleavage was 0.11.

Regarding G6A U31C U49C U51A U72C, the self-cleavage amounted to 0.17.

Consider A5U C11G U51G U58C A65G, for which the self-cleavage is 0.08.

For G6A G73U A77C, the self-cleavage is 0.38.

For A5U G9U U25C A35U C38U U51A A56G, the self-cleavage stood at 0.14.
